Consider 43 compounds from article PMC4336329 (PLoS ONE, 2015).

The whole screen tested about 310,000 compounds, of which about 14,000 (4.5%) showed an effect of 50% or more. The effect is printed as a negative number. The list shows a part of the results.
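Further: peak tail current of the secondary pulse compared with the same well before compound.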

In the test the target is human ether-à-go-go-related gene (hERG) potassium channel (human, UniProt Q12809). The test can be described thus: primary screen, population patch clamp on CHO cells stably expressing hERG.
Chain of human ether-à-go-go-related gene (hERG) potassium channel (Q12809 whole entry, looked up): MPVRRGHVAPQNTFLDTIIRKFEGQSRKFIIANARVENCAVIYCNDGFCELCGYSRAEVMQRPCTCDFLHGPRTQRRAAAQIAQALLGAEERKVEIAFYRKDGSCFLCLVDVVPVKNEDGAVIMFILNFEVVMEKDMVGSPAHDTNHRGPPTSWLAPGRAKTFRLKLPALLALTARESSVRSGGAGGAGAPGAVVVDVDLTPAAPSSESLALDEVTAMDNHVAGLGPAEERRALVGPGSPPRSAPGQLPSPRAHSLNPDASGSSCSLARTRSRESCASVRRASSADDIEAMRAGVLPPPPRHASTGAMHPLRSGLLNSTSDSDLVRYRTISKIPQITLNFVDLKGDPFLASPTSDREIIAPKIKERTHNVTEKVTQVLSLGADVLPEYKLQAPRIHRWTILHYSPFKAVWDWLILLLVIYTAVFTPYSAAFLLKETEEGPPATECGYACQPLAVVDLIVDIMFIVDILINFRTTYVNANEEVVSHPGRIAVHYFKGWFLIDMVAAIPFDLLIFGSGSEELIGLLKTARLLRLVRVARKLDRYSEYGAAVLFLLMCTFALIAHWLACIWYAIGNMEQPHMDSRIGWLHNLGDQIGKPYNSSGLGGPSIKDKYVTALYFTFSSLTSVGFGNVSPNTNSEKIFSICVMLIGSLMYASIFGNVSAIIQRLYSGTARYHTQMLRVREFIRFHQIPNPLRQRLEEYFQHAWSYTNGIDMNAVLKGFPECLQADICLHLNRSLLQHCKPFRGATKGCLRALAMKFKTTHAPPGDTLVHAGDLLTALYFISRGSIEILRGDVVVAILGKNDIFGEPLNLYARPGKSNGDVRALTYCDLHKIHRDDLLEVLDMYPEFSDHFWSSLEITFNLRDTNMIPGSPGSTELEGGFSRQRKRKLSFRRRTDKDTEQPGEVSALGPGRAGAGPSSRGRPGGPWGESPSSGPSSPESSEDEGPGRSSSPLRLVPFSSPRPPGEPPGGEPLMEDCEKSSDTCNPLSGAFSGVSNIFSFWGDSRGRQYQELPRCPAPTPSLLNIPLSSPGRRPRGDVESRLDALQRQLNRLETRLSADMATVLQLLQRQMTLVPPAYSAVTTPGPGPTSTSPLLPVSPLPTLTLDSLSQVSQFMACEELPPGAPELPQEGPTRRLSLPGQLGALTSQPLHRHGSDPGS
Consider `CCCN1CCc2c(sc(NC(=O)c3ccc(S(=O)(=O)N(C)c4ccccc4)cc3)c2C(N)=O)C1`, for which the “hERG current change (%, negative = inhibition) at 10uM” value is recorded as 16.5%. With `Cc1cc(Nc2ccccc2)nn1C(=O)c1ccc([N+](=O)[O-])cc1` the figure was 21%; with `CC(NC(=O)COc1ccc(S(=O)(=O)N2CCCC2)cc1)c1ccccc1` (stereo not shown), 7.5%.

In the case of `CC1CCN(S(=O)(=O)c2ccc(NC(=O)CSc3ncccc3C(=O)O)cc2)CC1`, the “hERG current change (%, negative = inhibition) at 10uM” value came out at 7.31%.

Regarding `Cc1nn(-c2ccccn2)c2c1-c1nc(N)ncc1CC2`, the “hERG current change (%, negative = inhibition) at 10uM” value is on record as 5.03%. With `O=C(Nc1cccc(F)c1)C1CCCN(S(=O)(=O)c2cnc[nH]2)C1` (stereo not shown), the “hERG current change (%, negative = inhibition) at 10uM” value stood at 17.4%. `CCOc1ccc(-c2cnc(SCC(N)=O)nc2N)cc1`: the “hERG current change (%, negative = inhibition) at 10uM” value is given as 4.44%.

Take `CCOC(=O)c1c(NC(=O)CSc2nc(C)cc(C)c2C#N)sc(C(C)=O)c1C`: the “hERG current change (%, negative = inhibition) at 10uM” value is 7.14%. The result for `Cc1ccc(-c2cc(N)on2)cc1` reads 8.36%; that for `O=C(CN1CCN(S(=O)(=O)/C=C/c2ccccc2)CC1)Nc1ccc(N2CCOCC2)cc1`, 35.9%; that for `CCN(c1ccccc1)S(=O)(=O)c1ccc(N)cc1`, -6.55%. Regarding `CC(=O)N1c2ccc(S(=O)(=O)N3CCC(C(=O)Nc4cccc(C(F)(F)F)c4)CC3)cc2CC1C` (stereo not shown), the “hERG current change (%, negative = inhibition) at 10uM” value was found to be 11.7%.

As to `O=C(CCNC(=O)C1CCN(S(=O)(=O)c2ccccc2)CC1)NCc1cccc(Cl)c1`, the “hERG current change (%, negative = inhibition) at 10uM” value is -45.8%. With `CCOC(=O)N1CCC(NC(=O)CCS(=O)(=O)c2ccc3c(c2)CCN3C(=O)CC)CC1`, the “hERG current change (%, negative = inhibition) at 10uM” value was 2.77%. Regarding `COc1ccc(C(=O)NCCNc2nc3cc(C)c(C)cc3cc2C)cc1`, the “hERG current change (%, negative = inhibition) at 10uM” value is 7.22%. On to `CCCCn1c(O)c(C(C)=NCC2CCCO2)c(=O)[nH]c1=O` (stereo not shown), for which the “hERG current change (%, negative = inhibition) at 10uM” value is listed as -6.11%. Turning to `COc1ccc(S(=O)(=O)CCC(=O)NCCc2ccc(C)cc2)cc1`, the “hERG current change (%, negative = inhibition) at 10uM” value is -0.726%. For `O=C(Nc1ccc(Br)cc1)C1CCCC1`, the “hERG current change (%, negative = inhibition) at 10uM” value is 9.31%. Regarding `Cc1cc(NC(=O)CCC(=O)N(c2ccccc2)C(C(=O)NC(C)(C)C)c2ccccc2Cl)no1` (stereo not shown), the “hERG current change (%, negative = inhibition) at 10uM” value was -5.48%. The result for `CC1CCN(C(=O)c2ccc(S(=O)(=O)Cc3cc(F)ccc3F)c([N+](=O)[O-])c2)CC1` reads -23.5%. Consider `CC1CC(C)CN(CC(C)(C)NS(=O)(=O)c2ccc(Cl)cc2)C1` (stereo not shown), for which the “hERG current change (%, negative = inhibition) at 10uM” value is reported as -18.7%.

In the case of `CCCc1c(C)c2c(C)[nH]nc2oc1=O`, the “hERG current change (%, negative = inhibition) at 10uM” value is given as -1.89%. `OCCN1CCN(c2ncnc3scc(-c4ccc(F)cc4)c23)CC1`: the “hERG current change (%, negative = inhibition) at 10uM” value is reported as -22.1%. For `CC(Oc1cc2oc(=O)c3c(c2cc1Cl)CCCC3)C(=O)NCc1ccccn1` (stereo not shown), the “hERG current change (%, negative = inhibition) at 10uM” value was -26.8%. Regarding `c1cc(C(c2nnnn2C2CCCCC2)N2CCN3CCCC3C2)ccn1` (stereo not shown), the “hERG current change (%, negative = inhibition) at 10uM” value is recorded as -1.98%. With `O=C(N/N=C/c1cccc(OC(=O)c2cccc(Br)c2)c1)c1cccnc1`, the “hERG current change (%, negative = inhibition) at 10uM” value is 0.405%.

For `Cc1ccc(N(C(C)C(=O)O)S(=O)(=O)c2c(C)n[nH]c2C)cc1` (stereo not shown), the “hERG current change (%, negative = inhibition) at 10uM” value came to 25.6%. Regarding `COc1ccc(C(=O)C[n+]2ccc(-c3nnc4n3CCC4)cc2)cc1.[Br-]`, the “hERG current change (%, negative = inhibition) at 10uM” value is given as 22.1%. For `Cc1ccc(OCC(=O)Nc2ccc(S(=O)(=O)N3CCOCC3)cc2)c(Br)c1`, the “hERG current change (%, negative = inhibition) at 10uM” value worked out at 6.42%. Consider `CCCOc1ccccc1C(=O)N(Cc1ccc(C)o1)C1CCS(=O)(=O)C1` (stereo not shown), for which the “hERG current change (%, negative = inhibition) at 10uM” value is given as -17%. Take `COCCN(C(=O)COC(=O)CSc1ccc(Cl)cc1)c1c(N)n(Cc2ccccc2)c(=O)[nH]c1=O`: the “hERG current change (%, negative = inhibition) at 10uM” value is recorded as 9.76%.

Turning to `COc1ccc(NC(=O)c2c(F)c(F)c(F)c(F)c2F)cc1Cl`, the “hERG current change (%, negative = inhibition) at 10uM” value was found to be 3.45%.

For `CN(Cc1cccnc1)C(=O)CNC(=O)c1ccc(Cl)cc1Cl`, the “hERG current change (%, negative = inhibition) at 10uM” value is recorded as -17.2%. For `CN1CCC(=O)N([C@H](CSc2ccc(Br)cc2)c2ccccc2)CC1`, the “hERG current change (%, negative = inhibition) at 10uM” value is -83.7%. With `C#CCN(CC=C)C(=O)CCc1nnc(COc2ccccc2)o1`, the “hERG current change (%, negative = inhibition) at 10uM” value is on record as 6.9%. For `CN1CCN(P(=O)(c2ccccc2)c2nc3ccccc3s2)CC1` (stereo not shown), the “hERG current change (%, negative = inhibition) at 10uM” value is -14.5%. For `CC(=O)Oc1cc2oc(=O)cc(C)c2cc1Cl`, the “hERG current change (%, negative = inhibition) at 10uM” value came out at 12.2%. With `Cc1nn(Cc2noc(C(=O)NCC3CCCO3)n2)c(C)c1Br` (stereo not shown), the “hERG current change (%, negative = inhibition) at 10uM” value stood at 11.5%. Take `O=C(OCc1nnc(-c2ccccc2)o1)c1ccc([N+](=O)[O-])s1`: the “hERG current change (%, negative = inhibition) at 10uM” value is recorded as -16.1%. In the case of `Cc1ccc(OCC(=O)N2CCN(Cc3ccc4c(c3)OCO4)CC2)cc1.O=C(O)C(=O)O`, the “hERG current change (%, negative = inhibition) at 10uM” value is -15.7%. With `CCOc1ccc(Cn2nnc(C(=O)NCCc3ccc(Cl)cc3)c2N)cc1`, the “hERG current change (%, negative = inhibition) at 10uM” value amounted to 17.4%. Turning to `CC1Oc2ccccc2N(CC(=O)NC2CC2)C1=O` (stereo not shown), the “hERG current change (%, negative = inhibition) at 10uM” value turned out to be 2.95%. In the case of `CCc1nc2n[nH]c(N)c2c2c1CSC(C)(C)C2`, the “hERG current change (%, negative = inhibition) at 10uM” value is recorded as -9.06%.
